Measurements taken from the supplement of paper PMC9174493.
Some of the results follow. Single values of this set are uncertain. Values with irradiation are relative to irradiated vehicle.

The compounds below were run on A549-Dual (assay: NF-kB reporter (SEAP) activity, viability-corrected, relative to vehicle (fold change vs vehicle); higher = more activation of STING-IRF / NF-kB immune response reporter). Settings: 10 µM; irradiation: 8 Gy/4 fr.
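Further: viability correction based on the alamar blue assay, with concentrations leaving 10% survival or less dropped.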

| Structure (SMILES) | NF-kB reporter |
| --- | --- |
| CC1(C)CCC(CN2CCN(c3ccc(C(=O)NS(=O)(=O)c4ccc(NCC5CCOCC5)c([N+](=O)[O-])c4)c(Oc4cnc5[nH]ccc5c4)c3)CC2)=C(c2ccc(Cl)cc2)C1 [Venetoclax (ABT-199, GDC-0199)] | 0.76 |
| CCN(CC)Cc1cc(Nc2ccnc3cc(Cl)ccc23)ccc1O.Cl.Cl [Amodiaquine hydrochloride] | 0.99 |
| CCN(C(=O)c1c(O)c2c(Cl)cccc2n(C)c1=O)c1ccccc1 [Laquinimod] | 0.988 |
| O=C(c1ccc(OCCN2CCCCC2)cc1)c1c(-c2ccc(O)cc2)sc2cc(O)ccc12 [Raloxifene] | 0.9 |

Same assay, conditions: 10 µM; irradiation: none

| Structure (SMILES) | NF-kB reporter |
| --- | --- |
| CCC(=O)OCC(=O)C1(OC(=O)CC)C(C)CC2C3CCC4=CC(=O)C=CC4(C)C3(Cl)C(O)CC21C (stereo not given) [Beclomethasone dipropionate] | 0.76 |
| CC(=O)Nc1ccc(OC(=O)c2ccccc2OC(C)=O)cc1 [Benorylate] | 1.02 |
| Nc1ccccc1NC(=O)c1ccc(CNC(=O)OCc2cccnc2)cc1 [Entinostat (MS-275)] | 1.86 |
| COc1cc(N2CCC(N3CCN(C)CC3)CC2)ccc1Nc1ncc(Cl)c(Nc2ccccc2P(C)(C)=O)n1 | 1.1 |
| Cc1c(-c2ccc(-c3ccccc3F)cc2)nc2ccc(F)cc2c1C(=O)O [Brequinar] | 1.25 |
| CCC1/C=C(\C)CC(C)CC(OC)C2OC(O)(C(=O)C(=O)N3CCCCC3C(=O)OC(/C(C)=C/C3CCC(Cl)C(OC)C3)C(C)C(O)CC1=O)C(C)CC2OC (stereo not given) [Pimecrolimus] | 1.38 |
